Target: T1, OVA (UniProt P01012 2-386)
T1 construct: Unconjugated carrier protein used as negative antigen; also called negative protein OVA
T1 sequence (looked up): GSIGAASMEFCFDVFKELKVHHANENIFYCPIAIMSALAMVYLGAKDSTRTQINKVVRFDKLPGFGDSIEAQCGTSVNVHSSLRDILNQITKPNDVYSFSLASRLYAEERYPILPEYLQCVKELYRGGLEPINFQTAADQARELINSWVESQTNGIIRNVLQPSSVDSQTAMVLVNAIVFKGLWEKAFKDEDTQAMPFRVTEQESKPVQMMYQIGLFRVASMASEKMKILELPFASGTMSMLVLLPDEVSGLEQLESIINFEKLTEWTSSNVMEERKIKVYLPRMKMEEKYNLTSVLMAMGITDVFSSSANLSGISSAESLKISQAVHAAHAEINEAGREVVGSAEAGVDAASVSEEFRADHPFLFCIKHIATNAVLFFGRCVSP
Experiment: ELISA, OVA coated at 1 µg/mL, anti-human IgG HRP

- binding result: no binding
B1: PP-1A-#600 (PP-1A-#85 peptide + MSLN VHH+ Fc) (Fc fusion)
chain: ACDESHGVPHTSGMCGGGSEVQLVESGGGLVQPGGSLRLSCAVSGFPLSSYGMSWARQAPGEERELVAHIGTTGGSTNYADSVKGRFTISRDNAKNSVYLQMNSLRAEDTAVYYCRARRQMPSNEYWGQGTTVTVSS[human IgG1 Fc not listed]
notes: Expressed in E. coli BL21; also called antibody fusion peptide; PP-1A-#600 fusion molecule

From patent publication EP4725508A1, “LIGAND-DRUG CONJUGATE HAVING FREE PAYLOAD RECOVERY UNIT” (RemeGen Co., Ltd., priority 2024, dated 2025)
